Experimental data published in PubChem BioAssay (NCATS).
Inconclusive means that the source gave no clear call. Such entries were picked first, then a sample of the others. For part of these data: Potencies of inconclusive entries are left out as doubtful fits. The source made the active and inactive calls. The call rests on the fitted dose curve; in most records, active means well fitted curve in the direction sought with a large enough effect; inconclusive means small, poorly fitted or top-dose-only effect, or another doubt; inactive means no such curve, though single readings can be large; an effect the other way counts as inactive or inconclusive.

Experiments:
[1] = qHTS of pediatric cancer cell lines to identify multiple opportunities for drug repurposing: Primary screen for OHS-50 cells (AID 1347103); conditions: OHS-50 osteosarcoma viability, CellTiter-Glo luminescence, 48 h; activity change, negative = cytotoxic: at 57.3 µM (top of the series); further: nearly all actives have a fitted effect of over 40% in size;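 on activity change, negative = cytotoxic: plate controls were DMSO neutral control for no effect and bortezomib positive control for full effect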
How it was run: (§1)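 Cells (500-1,000/well) rested 5 h, then received compounds for 48 h; metabolically active cells were measured by CellTiter-Glo luminescence. Final concentrations spanned up to 46 µM (MIPE, 11-point) or 0.59 nM-46 µM (NPC, 8-point) in primary screens, 11-point in follow-ups.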

[2] = qHTS of pediatric cancer cell lines to identify multiple opportunities for drug repurposing: Primary screen for RD cells (AID 1347104); further: nearly all actives have a fitted effect of over 55% in size;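 on activity change, negative = cytotoxic: plate controls were DMSO for no effect and bortezomib for full effect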
How it was run: (§2)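 Primary screen of approved and investigational compounds on cells in growth media at 37 degrees C, 5% CO2. MIPE set at 11-point and NPC set at 8-point dilutions; viability scored by ATP-based luminescence at 48 hours.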

[3] = qHTS of pediatric cancer cell lines to identify multiple opportunities for drug repurposing: Primary screen for MG 63 (6-TG R) cells (AID 1347105); conditions: MG 63 (6-TG R) viability, CellTiter-Glo, 48 h; activity change, negative = cytotoxic: at 46 µM (top of the series) unless noted; further: nearly all actives have a fitted effect of over 50% in size; on activity change, negative = cytotoxic: on the % scale 0 is the no-effect control and ±100 the full control effect
How it was run: as §2

[4] = qHTS of pediatric cancer cell lines to identify multiple opportunities for drug repurposing: Primary screen for control Hh wild type fibroblast cells (AID 1347106); further: nearly all actives have a fitted effect of over 55% in size;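 on activity change, negative = cytotoxic: on the % scale 0 is the no-effect control and ±100 the full control effect; a drop in luminescence marks cytotoxicity and a rise apparent proliferation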
How it was run: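 Cells (500-1,000/well) in growth media were settled 5 h at 37 degrees C, then given compounds for 48 h. Viability was read as CellTiter-Glo luminescence. Primary runs used MIPE at 11 points (0.78 nM-46 µM) and NPC at 8 points (0.59 nM-46 µM); follow-ups used 11 points.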

[5] = qHTS of pediatric cancer cell lines to identify multiple opportunities for drug repurposing: Primary screen for Rh41 cells (AID 1347108); further: nearly all actives have a fitted effect of over 70% in size
How it was run: as §2

[6] = qHTS of pediatric cancer cell lines to identify multiple opportunities for drug repurposing: Primary screen for Rh30 cells (AID 1347107); further: nearly all actives have a fitted effect of over 75% in size; on activity change, negative = cytotoxic: on the % scale 0 is the no-effect control and ±100 the full control effect
How it was run: as §1

[7] = qHTS of pediatric cancer cell lines to identify multiple opportunities for drug repurposing: Confirmatory screen for NB1643 cells (AID 1347109); conditions: NB1643 neuroblastoma cell viability; activity change, negative = cytotoxic: at 45.9 µM (top of the series) unless noted; further: nearly all actives have a fitted effect of over 45% in size
How it was run: as §1

[8] = qHTS of pediatric cancer cell lines to identify multiple opportunities for drug repurposing: Confirmatory screen for SK-N-MC cells (AID 1347111);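 further: cells exposed to compound for 48 h before the readout; nearly all actives have a fitted effect of over 70% in size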
How it was run: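 Seed 500-1,000 cells/well; rest 5 h at 37 degrees C. Pin-transfer compounds, 11-point titration. Incubate 48 h. Add CellTiter-Glo, 15 min RT, read luminescence.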
Potency means the concentration at half of the fitted maximal effect; tags describe the fitted curve by direction and shape.

With `NC1=NC(=O)N2CC12` (centres undefined) the Potency [1] was “inactive”, the Potency [2] was inconclusive [cytotoxic, single point] and the Potency [3] was “inactive”.

For `CCC(=O)O[C@@H]1C=C2CCC3C(CCC4(C)C3CC[C@@H]4OC(=O)CC)C2CC1` (some centres undefined), the Potency [1] was “inactive”.

For `O=C(CCl)c1ccc(Cl)cc1Cl`, the Potency [1] was inconclusive [cytotoxic, single point], the Potency [2] was inconclusive [cytotoxic, single point] and the activity change, negative = cytotoxic [3] was inconclusive: -42.1% [cytotoxic]. The Potency [4] was “inactive” and the Potency [5] was inconclusive [cytotoxic, single point].

In the case of `COc1ccc2c(c1)[C@]13CCCCC1C(C2)N(C)CC3` (some centres undefined), the Potency [1] is reported as inconclusive [cytotoxic, partial curve].

In the case of `CO[C@]12CC[C@@]3(C[C@@H]1[C@](C)(O)C(C)(C)C)[C@@H]1Cc4ccc(O)c5c4[C@@]3(CCN1CC1CC1)[C@H]2O5`, the Potency [1] is reported as active: 25 µM, the Potency [2] is reported as inconclusive [cytotoxic, single point] and the Potency [3] is reported as active: 30.3 µM. For the same molecule, the Potency [4] was inconclusive [cytotoxic, single point], the Potency [6] was inconclusive [cytotoxic, single point] and the Potency [5] was inconclusive [cytotoxic, single point].

For `Nc1ccc([N+](=O)[O-])cc1`, the Potency [1] was inconclusive [cytotoxic, partial curve, poor fit] and the Potency [2] was inconclusive [cytotoxic, partial curve].

In the case of `C[C@@H]1[C@@H](C(=O)C[C@H]2O[C@@H]3O[C@]4(C)CC[C@@H]5[C@H](C)CC[C@@H]([C@H]2C)[C@@]35OO4)O[C@@H]2O[C@]3(C)CC[C@H]4[C@H](C)CC[C@@H]1[C@@]24OO3`, the Potency [1] is reported as active: 0.385 µM, the Potency [2] is reported as inconclusive [cytotoxic, full curve] and the Potency [3] is reported as “inactive”. For the same molecule, the Potency [4] was “inactive”, the Potency [5] was inconclusive [cytotoxic, full curve, poor fit] and the Potency [7] was inconclusive [cytotoxic, full curve]. The Potency [8] was active: 2.93 µM.

For `CCN(CC)C(=O)c1ccc(C2=CC3(CCNCC3)Oc3cccc(O)c32)cc1`, the Potency [1] was inconclusive [cytotoxic, single point] and the Potency [2] was inconclusive [cytotoxic, partial curve].

With `OC(c1ccccc1)(c1ccccc1)C1CCNCC1` the Potency [1] was inconclusive [cytotoxic, partial curve].

With `NC(=O)c1cc([N+](=O)[O-])cc([N+](=O)[O-])c1` the Potency [1] was “inactive”.

For `O=C(Oc1ccc([N+](=O)[O-])cc1)N1CCC(C(O)(c2ccc3c(c2)OCO3)c2ccc3c(c2)OCO3)CC1`, the Potency [1] was inconclusive [cytotoxic, partial curve, poor fit] and the Potency [2] was “inactive”.

In the case of `CC(C)(C)c1cc(C=C(C#N)C#N)cc(Br)c1O`, the Potency [1] is reported as active: 30.6 µM, the Potency [2] is reported as inconclusive [cytotoxic, single point] and the Potency [3] is reported as inconclusive [cytotoxic, single point]. The Potency [6] was “inactive”.

In the case of `CC[n+]1c(-c2ccccc2)c2cc(N)ccc2c2ccc(N)cc21`, the Potency [1] is reported as active: 1.55 µM, the Potency [2] is reported as active: 13.3 µM and the Potency [3] is reported as inconclusive [cytotoxic, partial curve, poor fit]. For the same molecule, the Potency [4] was inconclusive [cytotoxic, full curve], the Potency [6] was inconclusive [cytotoxic, full curve] and the Potency [5] was active: 3.35 µM. For the same molecule, the Potency [7] was active: 11.7 µM.

With `CC[C@@H](CO)NC(=O)[C@@H]1C=C2c3cccc4c3c(cn4C)C[C@H]2N(C)C1` the Potency [1] was “inactive” and the Potency [2] was “inactive”.

For `CC[N+]1(CC)CCC(OC(=O)C(O)(c2ccccc2)c2ccccc2)C1` (centres undefined), the Potency [1] was “inactive”.

For `C[C@](O)(COc1ccc(C#N)cc1)C(=O)Nc1ccc(C#N)c(C(F)(F)F)c1`, the Potency [1] was active: 27.3 µM and the Potency [2] was inconclusive [cytotoxic, partial curve].

With `C#CCOC(C(=O)OCCN(C)C)(c1ccccc1)c1ccccc1` the Potency [1] was “inactive” and the Potency [2] was “inactive”.

For `C=CCOC(Cn1ccnc1)c1ccc(Cl)cc1Cl` (centres undefined), the Potency [1] was inconclusive [cytotoxic, partial curve, poor fit].

For `Clc1ccc(CO/N=C(\Cn2ccnc2)c2ccc(Cl)cc2Cl)c(Cl)c1`, the Potency [1] was inconclusive [cytotoxic, single point], the Potency [2] was inconclusive [cytotoxic, single point] and the Potency [3] was inconclusive [cytotoxic, single point]. For the same molecule, the Potency [5] was inconclusive [cytotoxic, single point].
